In PubChem BioAssay AID1461 (National Center for Advancing Translational Sciences (NCATS), 2008):
Out of some 220,000 compounds screened, about 2,300 (1%) were called active. This list was built around the results that the source calls inconclusive (neither active nor inactive); the mix of calls is not that of the screen. Calls come from the whole dose curve; as a rule, active = well fitted inhibition curve with a large enough effect; inconclusive = small, poorly fitted or top-dose-only effect, or effect the other way; inactive = no such curve, though single readings can be large or run the other way. Potencies of inconclusive entries are left out as doubtful fits.

Biological target: Neuropeptide S receptor (Homo sapiens) (UniProt Q6W5P4)
Assay: qHTS Assay for Antagonists of the Neuropeptide S Receptor: cAMP Signal Transduction; note: nearly all actives have a fitted effect of over 50% in size
Settings: CHO-NPSR cells, cAMP TR-FRET, antagonist mode; activity change, negative = inhibition: at 38.3 µM (top of the series) unless noted
% is set by controls: 0 for no effect and ±100 for the full control effect; potency is the fitted concentration of half-maximal effect; tags give direction and shape of the fitted curve.

UniProt Q6W5P4, sequence (Q6W5P4 whole entry, looked up): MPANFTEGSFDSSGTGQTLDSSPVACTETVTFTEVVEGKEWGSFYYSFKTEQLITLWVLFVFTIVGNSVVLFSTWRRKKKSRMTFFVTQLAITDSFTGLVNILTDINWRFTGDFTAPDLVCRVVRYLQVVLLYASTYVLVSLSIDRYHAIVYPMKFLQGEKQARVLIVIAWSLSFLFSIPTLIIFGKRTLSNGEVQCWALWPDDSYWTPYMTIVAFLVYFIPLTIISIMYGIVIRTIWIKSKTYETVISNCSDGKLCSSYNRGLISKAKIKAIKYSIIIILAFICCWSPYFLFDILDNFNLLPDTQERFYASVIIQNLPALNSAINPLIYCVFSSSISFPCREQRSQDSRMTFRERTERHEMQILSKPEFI

Compound	Potency	activity change, negative = inhibition
CSc1nc(N)nc(SCCS(=O)(=O)c2ccc(Cl)cc2)c1C#N	inconclusive [inhibitor, single point]	
COc1ccccc1OCCN1CSC(=S)N(C)C1	active: 3.16 µM	
COc1ccccc1N(C(=O)c1snc(C(N)=O)c1N)C(C(=O)NC1CCCC1)c1ccco1 (stereo not given)		inactive: -9.84% [at 46.1 µM]
CCOC(=O)c1ccc(NC(=O)Cn2ncc(Cl)c(Cl)c2=O)cc1	active: 10 µM	
O=C(COc1ccc(Cl)cc1)Nc1ncccn1	inconclusive [inhibitor, single point]	
CCCN1Cc2cccc(C(=O)N3CCN(c4cc(Cl)ccc4C)CC3)c2C1=O	inconclusive [inhibitor, single point]	
COc1cc2c(cc1OC)C(c1cccc([N+](=O)[O-])c1)N(C(=O)c1ccc(F)cc1)CC2 (stereo not given)	inconclusive [inhibitor, partial curve]	
Cc1nc(NCCc2ccc(F)cc2)c(C#N)c(C)c1[N+](=O)[O-]		inactive: -0.298%
Cc1ccc2cc(CCl)c(Cl)nc2c1	inconclusive [inhibitor, single point]	
Cc1cc(F)ccc1NCC(=O)Nc1ccccc1Br		inactive: -28.4% [at 46.1 µM]
N#Cc1c(N2CCCCC2)nc(N2CCCCC2)c2c1CCN(Cc1ccccc1)C2	inconclusive [inhibitor, partial curve]	
CN(C)CCCNc1cc(C(C)(C)C)nc2c(-c3ccccc3)cnn12	inconclusive [activator, partial curve]	
CCN(C(=O)c1cccs1)c1nnc(-c2ccncc2)s1		inactive: -18.6% [at 46.1 µM]
Cc1nc(N2CCOCC2)nc(N2CCCCC2C)c1[N+](=O)[O-] (stereo not given)	inconclusive [inhibitor, single point]	
Cc1ccccc1CSCc1nc(N)nc(Nc2ccccc2C)n1	inconclusive [inhibitor, single point]	
COc1ccc(/C=N/N(Cc2ccccc2)c2ccccc2)cc1O		inactive: -55.2%
CCC(C)(C)NC(=O)CN(C(=O)CNS(=O)(=O)c1ccc(C)cc1)c1ccc2c(c1)OCCO2	inconclusive [inhibitor, single point]	
O=C1c2ccccc2C(Nc2ccccc2)N1c1ccc(Cl)cn1 (stereo not given)	inconclusive [inhibitor, full curve, poor fit]	
CC(NC1CCCCC1)C(=O)NN=C(c1ccccc1)c1ccccc1 (stereo not given)	inconclusive [activator, single point]	
O=C(c1ccc(Cl)c(Cl)c1)N1CCC(=O)N(C(COCc2ccc(Cl)cc2)Cc2ccccc2)CC1 (stereo not given)	inconclusive [inhibitor, single point]	
